Measured values from article PMC12820563, “FoxP3 forms a head-to-head dimer in vivo and stabilizes its multimerization on adjacent microsatellites”.
This is one part of the list.

target: T1, MBP-FoxP1dN (Mus musculus, UniProt P58462 326-579); assay: PD-seq (MBP pull-down with sequencing); 20 mM Tris-HCl pH 7.5, 100 mM NaCl, 1.5 mM MgCl2, 0.4 uM protein, 0.1 uM dsDNA library, 30 min, room temperature, amylose pull-down; high values mean tight binding; conditions: protein: recombinant; tags: His6-MBP; chain copies: 2; dsDNA, one strand shown
T1 sequence: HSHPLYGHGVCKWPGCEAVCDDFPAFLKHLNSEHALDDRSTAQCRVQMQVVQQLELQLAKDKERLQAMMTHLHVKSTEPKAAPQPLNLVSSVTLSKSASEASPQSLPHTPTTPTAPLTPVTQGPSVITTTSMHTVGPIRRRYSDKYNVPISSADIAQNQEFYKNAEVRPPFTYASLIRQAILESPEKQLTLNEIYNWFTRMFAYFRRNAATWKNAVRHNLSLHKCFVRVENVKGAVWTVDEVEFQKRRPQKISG
Summary of the method: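 Binding is given as reads-per-million enrichment, pull-down over input, with replicates pooled. The bait was an N-terminus-lacking mouse FoxP3 or FoxP1 fragment with a His6-MBP tag, expressed in E. coli and used at 0.4 µM with 0.1 µM Klenow-filled degenerate double-stranded DNA library for 30 min at room temperature in Tris pH 7.5 buffer with NaCl and MgCl2. Amylose resin pull-down with three washes was followed by proteinase K release, PCR barcoding and Illumina sequencing.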

Row | Sequence | binding signal
1 | GATGATTGTTCTCCCAGCTGATGAATTTCCGGCATCGAGTAAACAAATTTTCCTAATCTTTCTGTTCAAGCGCCATCTAC | 0.948 RPM ratio (pull-down/input)
2 | GATGATTGTTCTCCCAGCTGATGAATTATATGTCTCGAGTAAACAAATTTTCCTAATCTTTCTGTTCAAGCGCCATCTAC | 0.958 RPM ratio (pull-down/input)
3 | GATGATTGTTCTCCCAGCTGATGAATTTAGCCGCTCGAGTAAACAAATTTTCCTAATCTTTCTGTTCAAGCGCCATCTAC | 0.835 RPM ratio (pull-down/input)
4 | GATGATTGTTCTCCCAGCTGATGAATTGGCCCAATCGAGTAAACAAATTTTCCTAATCTTTCTGTTCAAGCGCCATCTAC | 0.93 RPM ratio (pull-down/input)
5 | GATGATTGTTCTCCCAGCTGATGAATTGGACTAGTCGAGTAAACAAATTTTCCTAATCTTTCTGTTCAAGCGCCATCTAC | 0.735 RPM ratio (pull-down/input)
6 | GATGATTGTTCTCCCAGCTGATGAATTGAGACATTCGAGTAAACAAATTTTCCTAATCTTTCTGTTCAAGCGCCATCTAC | 0.975 RPM ratio (pull-down/input)
7 | GATGATTGTTCTCCCAGCTGATGAATTCCTCGTGTCGAGTAAACAAATTTTCCTAATCTTTCTGTTCAAGCGCCATCTAC | 0.828 RPM ratio (pull-down/input)
8 | GATGATTGTTCTCCCAGCTGATGAATTATGCAGCTCGAGTAAACAAATTTTCCTAATCTTTCTGTTCAAGCGCCATCTAC | 0.925 RPM ratio (pull-down/input)
9 | GATGATTGTTCTCCCAGCTGATGAATTAGCGTTCTCGAGTAAACAAATTTTCCTAATCTTTCTGTTCAAGCGCCATCTAC | 0.876 RPM ratio (pull-down/input)
10 | GATGATTGTTCTCCCAGCTGATGAATTTTATCAATCGAGTAAACAAATTTTCCTAATCTTTCTGTTCAAGCGCCATCTAC | 1.02 RPM ratio (pull-down/input)
11 | GATGATTGTTCTCCCAGCTGATGAATTTCTTTACTCGAGTAAACAAATTTTCCTAATCTTTCTGTTCAAGCGCCATCTAC | 1.04 RPM ratio (pull-down/input)
12 | GATGATTGTTCTCCCAGCTGATGAATTCATATATTCGAGTAAACAAATTTTCCTAATCTTTCTGTTCAAGCGCCATCTAC | 1.06 RPM ratio (pull-down/input)
13 | GATGATTGTTCTCCCAGCTGATGAATTAACGACCTCGAGTAAACAAATTTTCCTAATCTTTCTGTTCAAGCGCCATCTAC | 0.827 RPM ratio (pull-down/input)
14 | GATGATTGTTCTCCCAGCTGATGAATTCCTCGACTCGAGTAAACAAATTTTCCTAATCTTTCTGTTCAAGCGCCATCTAC | 0.814 RPM ratio (pull-down/input)
15 | GATGATTGTTCTCCCAGCTGATGAATTTCTAAACTCGAGTAAACAAATTTTCCTAATCTTTCTGTTCAAGCGCCATCTAC | 0.947 RPM ratio (pull-down/input)
16 | GATGATTGTTCTCCCAGCTGATGAATTCCATGAGTCGAGTAAACAAATTTTCCTAATCTTTCTGTTCAAGCGCCATCTAC | 0.847 RPM ratio (pull-down/input)

Row | Sequence | binding signal
17 | GATGATTGTTCTCCCAGCTGATGAATTTCCTTACTCGAGTAAACAAATTTTCCTAATCTTTCTGTTCAAGCGCCATCTAC | 0.874 RPM ratio (pull-down/input)
18 | GATGATTGTTCTCCCAGCTGATGAATTACTCGGATCGAGTAAACAAATTTTCCTAATCTTTCTGTTCAAGCGCCATCTAC | 0.978 RPM ratio (pull-down/input)
19 | GATGATTGTTCTCCCAGCTGATGAATTTGACATATCGAGTAAACAAATTTTCCTAATCTTTCTGTTCAAGCGCCATCTAC | 0.899 RPM ratio (pull-down/input)
20 | GATGATTGTTCTCCCAGCTGATGAATTCCGGTGGTCGAGTAAACAAATTTTCCTAATCTTTCTGTTCAAGCGCCATCTAC | 0.767 RPM ratio (pull-down/input)
21 | GATGATTGTTCTCCCAGCTGATGAATTGGTATAATCGAGTAAACAAATTTTCCTAATCTTTCTGTTCAAGCGCCATCTAC | 1.31 RPM ratio (pull-down/input)
22 | GATGATTGTTCTCCCAGCTGATGAATTCTGACCATCGAGTAAACAAATTTTCCTAATCTTTCTGTTCAAGCGCCATCTAC | 0.832 RPM ratio (pull-down/input)
23 | GATGATTGTTCTCCCAGCTGATGAATTGTTTTTGTCGAGTAAACAAATTTTCCTAATCTTTCTGTTCAAGCGCCATCTAC | 2.31 RPM ratio (pull-down/input)
24 | GATGATTGTTCTCCCAGCTGATGAATTCTAGCCCTCGAGTAAACAAATTTTCCTAATCTTTCTGTTCAAGCGCCATCTAC | 0.767 RPM ratio (pull-down/input)
25 | GATGATTGTTCTCCCAGCTGATGAATTGAGACACTCGAGTAAACAAATTTTCCTAATCTTTCTGTTCAAGCGCCATCTAC | 0.946 RPM ratio (pull-down/input)
26 | GATGATTGTTCTCCCAGCTGATGAATTCAGCCACTCGAGTAAACAAATTTTCCTAATCTTTCTGTTCAAGCGCCATCTAC | 0.977 RPM ratio (pull-down/input)
27 | GATGATTGTTCTCCCAGCTGATGAATTCTGGATGTCGAGTAAACAAATTTTCCTAATCTTTCTGTTCAAGCGCCATCTAC | 0.859 RPM ratio (pull-down/input)
28 | GATGATTGTTCTCCCAGCTGATGAATTCGCGACTTCGAGTAAACAAATTTTCCTAATCTTTCTGTTCAAGCGCCATCTAC | 0.875 RPM ratio (pull-down/input)
29 | GATGATTGTTCTCCCAGCTGATGAATTTAATGTTTCGAGTAAACAAATTTTCCTAATCTTTCTGTTCAAGCGCCATCTAC | 1.15 RPM ratio (pull-down/input)
30 | GATGATTGTTCTCCCAGCTGATGAATTTTCGCGGTCGAGTAAACAAATTTTCCTAATCTTTCTGTTCAAGCGCCATCTAC | 0.838 RPM ratio (pull-down/input)
31 | GATGATTGTTCTCCCAGCTGATGAATTTAGTCTGTCGAGTAAACAAATTTTCCTAATCTTTCTGTTCAAGCGCCATCTAC | 0.85 RPM ratio (pull-down/input)
